± gives the standard deviation of the averaged measurements. In all, about 33,000 sequences were measured (“E-score (dimensionless, -0.5 to 0.5)”: median about -0.049, highest 2% from about 0.37 on). This is one part of the list.
System: T1, PmTbr T-box DNA-binding domain (GST fusion)
T1 sequence: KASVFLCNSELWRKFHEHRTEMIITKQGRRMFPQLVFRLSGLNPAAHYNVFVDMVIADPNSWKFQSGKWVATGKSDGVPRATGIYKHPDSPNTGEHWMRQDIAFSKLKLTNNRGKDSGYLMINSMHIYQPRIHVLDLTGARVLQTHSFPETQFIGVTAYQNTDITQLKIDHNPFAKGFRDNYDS
Assay: PBM E-score of 8-mer (E-score (dimensionless, -0.5 to 0.5)); Tbr is Tbrain of the sea star Patiria miniata (Pm) or the sea urchin Strongylocentrotus purpuratus (Sp); higher = stronger binding preference; most listed sequences are background and not binding sites
Settings: the construct has about 5 more residues each side
Procedure: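 Universal protein-binding microarray (Agilent AMADID 016060, 60-bp probes with a 35-bp variable region) incubated with 200 nM GST-fused Patiria miniata Tbr T-box DNA-binding domain (residues 272-466) in PBS pH 7.5. Scored for every ungapped 8-mer (given with its reverse complement) by the Universal PBM Analysis Suite as E-score (modified Wilcoxon-Mann-Whitney enrichment, range -0.5 to 0.5; >0.45 counts as bound) and Z-score of median probe intensity. Two replicate arrays (datasets 1 and 2).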
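Note: 200 nM protein in PBS on universal arrays averaged over duplicate arrays.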

Sequence | PBM E-score of 8-mer
CCGGCACG | 0.0606 ± 0.051
CGGCTAAG | -0.112 ± 0.019
AAAGCTAG | 0.0329 ± 0.015
CTCGAGGC | -0.039 ± 0.098
CCCCGCAG | 0.0651 ± 0.12
CCTCTATA | -0.0793 ± 0.0064
ACGAAAAA | 0.0542 ± 0.081
CGCGCGTC | 0.27 ± 0.0066
CGCAGCGA | 0.0792 ± 0.034
ATATGAGG | 0.00413 ± 0.077
ATTGTCGC | 0.292 ± 0.024
GAAACGGA | -0.0173 ± 0.031
CGAAGCCC | -0.24 ± 0.015
GGCCACAA | -0.00403 ± 0.067
AAGCAGTG | -0.0981 ± 0.062
CGCAGGCC | -0.171 ± 0.036
GTGCACGA | 0.0388 ± 0.068
CCTTCTCG | -0.0151 ± 0.074
GGAGTGAC | 0.305 ± 0.014
CAGAGAGG | -0.215 ± 0.022
ATGATATG | 0.00581 ± 0.036
GTCGAACA | 0.0754 ± 0.019
ACTTTGAA | -0.0947 ± 0.082
CAGTAGTC | -0.308 ± 0.018

Sequence | PBM E-score of 8-mer
CACCGCTC | -0.0936 ± 0.025
ATAAGGGC | -0.242 ± 0.0041
ATCACCAC | 0.15 ± 0.0054
ACTTAGCG | 0.244 ± 0.017
AGGCAAAC | -0.0597 ± 0.05
CTGATATC | -0.122 ± 0.06
AATCTAAA | -0.0399 ± 0.05
AGATGAGA | -0.0493 ± 0.021
ACCCTGAT | -0.136 ± 0.025
ACAGAACT | -0.173 ± 0.056
AACGATGG | -0.0877 ± 0.044
AAGTCTAG | -0.131 ± 0.032
ACCATGAC | -0.101 ± 0.044
ATTTGACC | -0.282 ± 0.054
ACACAGTA | 0.123 ± 0.057
AAGACAAC | 0.00134 ± 0.031
GCAAGGAC | -0.0912 ± 0.024
GCACCTGA | 0.391 ± 0.024
GCGGAAAA | -0.0264 ± 0.027
GACTGTTA | 0.182 ± 0.077
TCTGCACA | 0.0268 ± 0.042
AAGCAGGC | -0.00975 ± 0.047
CTGTTCCA | -0.0385 ± 0.054
TCGGCACA | 0.166 ± 0.029

Sequence | PBM E-score of 8-mer
ACCCGGCT | -0.24 ± 0.0071
GACGGCCC | -0.0413 ± 0.0093
ATCATCCG | -0.16 ± 0.025
CCGAGTTA | -0.158 ± 0.044
ATGGGTGC | 0.15 ± 0.017
CTTCGTGA | 0.117 ± 0.044
AGGAGTCC | -0.319 ± 0.031
AAACACTC | 0.181 ± 0.017
AGGATCTC | -0.135 ± 0.026
AGCACACA | 0.0439 ± 0.003
CTGCACAA | -0.0665 ± 0.11
CAACCGAC | 0.0468 ± 0.016
ACGCTCTG | -0.0658 ± 0.04
CCACCATA | -0.095 ± 0.013
ATTTGATG | -0.119 ± 0.0072
GTCTCCCA | -0.162 ± 0.037
ACGTTAAC | 0.201 ± 0.029
CGAAGATA | 0.0221 ± 0.037
ACATTCAC | 0.251 ± 0.026
CATCCTTA | 0.0522 ± 0.0077
AGAAGGGG | -0.0268 ± 0.057
CCTGCGCG | 0.173 ± 0.017
CCGCCTCA | -0.0274 ± 0.023
CTCTTGGA | -0.206 ± 0.04

Sequence | PBM E-score of 8-mer
ATTGACTA | -0.317 ± 0.025
CCAGGGAG | -0.215 ± 0.037
GGCCGTCA | 0.0329 ± 0.017
GAAATCTC | 0.0395 ± 0.048
CGCAATAA | -0.0672 ± 0.051
ATGTGTGC | 0.219 ± 0.016
CTTGCGGA | 0.0704 ± 0.066
TAGTGCAA | 0.267 ± 0.055
CATAACGA | -0.176 ± 0.016
ATCTAAGA | -0.318 ± 0.07
ACGTAACA | 0.0723 ± 0.072
AAGGGAAC | -0.208 ± 0.072
ACGGCCGT | 0.0556 ± 0.068
GGACCGAA | -0.15 ± 0.032
ATTACAGG | -0.115 ± 0.1
ATGACAGA | -0.0211 ± 0.00092
ACATATAA | -0.0564 ± 0.075
AACTACGT | -0.122 ± 0.092
GTTAGCCA | 0.0261 ± 0.045
GCCGGCAC | 0.15 ± 0.04
GGATGCAC | -0.117 ± 0.1
AGTTGGTC | -0.129 ± 0.036

From the supplement of paper PMC4166925
